Results taken from the supplement of paper PMC8728848.
Some of the results follow.

Assays:
Assay in all cases: glycan array binding signal (z-score within array); higher = stronger binding
Details in all cases: glycan notation: IUPAC condensed, linker removed
[1] = biological target: Neu5Ac(a2-6)Gal(b1-4)GlcNAc(b1-3)Gal(b1-4)GlcNAc(b1-3)Gal(b1-4)GlcNAc(b1-2)Man(a1-3)[Neu5Ac(a2-6)Gal(b1-4)GlcNAc(b1-3)Gal(b1-4)GlcNAc(b1-3)Gal(b1-4)GlcNAc(b1-2)Man(a1-6)]GalNAc
Outline: (§1)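 The Consortium for Functional Glycomics database supplied 3228 glycan arrays, of which those lacking an available protein sequence were dropped. The binding signal, a within-array Z-score, was averaged across arrays of the same protein sequence and across linkers. Negative scores can be read as non-binding.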

[2] = biological target: Neu5Ac(a2-6)Gal(b1-4)GlcNAc(b1-3)Gal(b1-4)GlcNAc(b1-3)GalNAc
Outline: as §1

[3] = biological target: Neu5Ac(a2-6)Gal(b1-4)GlcNAc(b1-3)Gal(b1-4)GlcNAc(b1-3)[Neu5Ac(a2-6)Gal(b1-4)GlcNAc(b1-3)Gal(b1-4)GlcNAc(b1-6)]GalNAc
Outline: as §1

[4] = biological target: Neu5Ac(a2-6)Gal(b1-4)GlcNAc(b1-3)Gal(b1-4)GlcNAc(b1-6)[Gal(b1-3)]GalNAc
Outline: as §1

[5] = biological target: Neu5Ac(a2-6)Gal(b1-4)GlcNAc(b1-3)Gal(b1-4)[Fuc(a1-3)]GlcNAc(b1-3)Gal(b1-4)[Fuc(a1-3)]GlcNAc
Outline: as §1

[6] = biological target: Neu5Ac(a2-6)Gal(b1-4)GlcNAc(b1-3)GalNAc
Outline: as §1

[7] = biological target: Neu5Ac(a2-6)Gal(b1-4)GlcNAc(b1-3)[Neu5Ac(a2-6)Gal(b1-4)GlcNAc(b1-6)]GalNAc
Outline: as §1

[8] = biological target: Neu5Ac(a2-6)Gal(b1-4)GlcNAc(b1-6)GalNAc
Outline: as §1

[9] = biological target: Neu5Ac(a2-6)Gal(b1-4)GlcNAc(b1-6)[Gal(b1-3)GlcNAc(b1-3)]Gal(b1-4)Glc
Outline: as §1

[10] = biological target: Neu5Ac(a2-6)Gal(b1-4)GlcNAc(b1-6)[Gal(b1-3)]GalNAc
Outline: as §1

[11] = biological target: Neu5Ac(a2-6)Gal(b1-4)GlcNAc6S
Outline: as §1

[12] = biological target: Neu5Ac(a2-6)GalNAc
Outline: as §1

[13] = biological target: Neu5Ac(a2-6)GalNAc(b1-4)GlcNAc
Outline: as §1

[14] = biological target: Neu5Ac(a2-6)GalNAc(b1-4)GlcNAc6S
Outline: as §1

[15] = biological target: Neu5Ac(a2-6)GlcNAc(b1-4)GlcNAc
Outline: as §1

[16] = biological target: Neu5Ac(a2-6)GlcNAc(b1-4)GlcNAc(b1-4)GlcNAc
Outline: as §1

[17] = biological target: Neu5Ac(a2-8)Neu5Ac
Outline: as §1

[18] = biological target: Neu5Ac(a2-8)Neu5Ac(a2-3)Gal(b1-3)GalNAc(b1-4)[Neu5Ac(a2-3)]Gal(b1-4)Glc
Outline: as §1

[19] = biological target: Neu5Ac(a2-8)Neu5Ac(a2-3)Gal(b1-3)GalNAc(b1-4)[Neu5Ac(a2-8)Neu5Ac(a2-3)]Gal(b1-4)Glc
Outline: as §1

[20] = biological target: Neu5Ac(a2-8)Neu5Ac(a2-3)Gal(b1-4)Glc
Outline: as §1

[21] = biological target: Neu5Ac(a2-8)Neu5Ac(a2-3)Gal(b1-4)GlcNAc
Outline: as §1

[22] = biological target: Neu5Ac(a2-8)Neu5Ac(a2-3)[Gal(b1-3)GalNAc(b1-4)]Gal(b1-4)Glc
Outline: as §1

[23] = biological target: Neu5Ac(a2-8)Neu5Ac(a2-3)[GalNAc(b1-4)]Gal(b1-4)Glc
Outline: as §1

[24] = biological target: Neu5Ac(a2-8)Neu5Ac(a2-8)Neu5Ac
Outline: as §1

[25] = biological target: Neu5Ac(a2-8)Neu5Ac(a2-8)Neu5Ac(a2-3)Gal(b1-4)Glc
Outline: as §1

[26] = biological target: Neu5Ac(a2-8)Neu5Ac(a2-8)Neu5Ac(a2-3)[Gal(b1-3)GalNAc(b1-4)]Gal(b1-4)Glc
Outline: as §1

[27] = biological target: Neu5Ac(a2-8)Neu5Ac(a2-8)Neu5Ac(a2-3)[GalNAc(b1-4)]Gal(b1-4)Glc
Outline: as §1

[28] = biological target: Neu5Ac(a2-8)Neu5Ac(a2-8)Neu5Ac(a2-8)Neu5Ac(a2-3)[GalNAc(b1-4)]Gal(b1-4)Glc
Outline: as §1

[29] = biological target: Neu5Ac(a2-8)Neu5Gc(a2-3)Gal(b1-4)GlcNAc
Outline: as §1

[30] = biological target: Neu5Ac(b2-6)Gal(b1-4)GlcNAc
Outline: as §1

[31] = biological target: Neu5Ac(b2-6)GalNAc
Outline: as §1

[32] = biological target: Neu5Ac9Ac(a2-3)Gal(b1-3)GlcNAc
Outline: as §1

[33] = biological target: Neu5Ac9Ac(a2-3)Gal(b1-4)GlcNAc
Outline: as §1

[34] = biological target: Neu5Ac9Ac(a2-6)Gal(b1-4)GlcNAc
Outline: as §1

[35] = biological target: Neu5Gc(a2-3)Gal(b1-3)GlcNAc
Outline: as §1

[36] = biological target: Neu5Gc(a2-3)Gal(b1-3)[Fuc(a1-4)]GlcNAc
Outline: as §1

[37] = biological target: Neu5Gc(a2-3)Gal(b1-4)Glc
Outline: as §1

[38] = biological target: Neu5Gc(a2-3)Gal(b1-4)GlcNAc
Outline: as §1

[39] = biological target: Neu5Gc(a2-3)Gal(b1-4)GlcNAc(b1-3)Gal(b1-4)GlcNAc(b1-2)Man(a1-3)[Neu5Gc(a2-3)Gal(b1-4)GlcNAc(b1-3)Gal(b1-4)GlcNAc(b1-2)Man(a1-6)]Man(b1-4)GlcNAc(b1-4)GlcNAc
Outline: as §1

[40] = biological target: Neu5Gc(a2-3)Gal(b1-4)[Fuc(a1-3)]GlcNAc
Outline: as §1

[41] = biological target: Neu5Gc(a2-6)Gal(b1-4)GlcNAc
Outline: as §1

[42] = biological target: Neu5Gc(a2-6)GalNAc
Outline: as §1

[43] = biological target: Neu5Gc(a2-8)Neu5Ac(a2-3)Gal(b1-4)GlcNAc
Outline: as §1

[44] = biological target: Neu5Gc(a2-8)Neu5Gc(a2-3)Gal(b1-4)GlcNAc
Outline: as §1

[45] = biological target: Neu5Gc(a2-8)Neu5Gc(a2-3)Gal(b1-4)GlcNAc(b1-3)Gal(b1-4)GlcNAc
Outline: as §1

[46] = biological target: Neu5Gc(a2-8)Neu5Gc(a2-6)Gal(b1-4)GlcNAc
Outline: as §1

[47] = biological target: Neu5Gc(b2-6)Gal(b1-4)GlcNAc
Outline: as §1

B1: DC-ASGPR Long (Homo sapiens) (protein)
chain: MTRTYENFQYLENKVKVQGFKNGPLPLQSLLQRLRSGPCHLLLSLGLGLLLLVIICVVGFQNSKFQRDLVTLRTDFSNFTSNTVAEIQALTSQGSSLEETIASLKAEVEGFKQERQAGVSELQEHTTQKAHLGHCPHCPSVCVPVHSEMLLRVQQLVQDLKKLTCQVATLNNNASTEGTCCPVNWVEHQDSCYWFSHSGMSWAEAEKYCQLKNAHLVVINSREEQNFVQKYLGSAYTWMGLSDPEGAWKWVDGTDYATGFQNWKPGQPDDWQGHGLGGGEDCAHFHPDGGWNDDVCQRPYHWVCEAGLGQTSQESH
glycan array binding signal (z-score) [1]: 1.75 | glycan array binding signal (z-score) [2]: -0.693 | glycan array binding signal (z-score) [3]: -0.223 | glycan array binding signal (z-score) [4]: -0.527 | glycan array binding signal (z-score) [5]: -0.245 | glycan array binding signal (z-score) [6]: 0.262 | glycan array binding signal (z-score) [7]: -0.38 | glycan array binding signal (z-score) [8]: -0.224 | glycan array binding signal (z-score) [9]: -0.38 | glycan array binding signal (z-score) [10]: -0.733 | glycan array binding signal (z-score) [11]: 0.116 | glycan array binding signal (z-score) [12]: 0.918 | glycan array binding signal (z-score) [13]: 1.27 | glycan array binding signal (z-score) [14]: -0.098 | glycan array binding signal (z-score) [15]: -0.437 | glycan array binding signal (z-score) [16]: -0.466 | glycan array binding signal (z-score) [17]: -0.533 | glycan array binding signal (z-score) [18]: -0.374 | glycan array binding signal (z-score) [19]: -0.349 | glycan array binding signal (z-score) [20]: -0.297 | glycan array binding signal (z-score) [21]: -0.339 | glycan array binding signal (z-score) [22]: -0.074 | glycan array binding signal (z-score) [23]: 1.28 | glycan array binding signal (z-score) [24]: -0.221 | glycan array binding signal (z-score) [25]: -0.459 | glycan array binding signal (z-score) [26]: -0.41 | glycan array binding signal (z-score) [27]: 0.83 | glycan array binding signal (z-score) [28]: 0.893 | glycan array binding signal (z-score) [29]: -0.127 | glycan array binding signal (z-score) [30]: -0.03 | glycan array binding signal (z-score) [31]: -0.414 | glycan array binding signal (z-score) [32]: -0.292 | glycan array binding signal (z-score) [33]: -0.012 | glycan array binding signal (z-score) [34]: -0.439 | glycan array binding signal (z-score) [35]: -0.306 | glycan array binding signal (z-score) [36]: -0.334 | glycan array binding signal (z-score) [37]: -0.31 | glycan array binding signal (z-score) [38]: -0.161 | glycan array binding signal (z-score) [39]: 0.188 | glycan array binding signal (z-score) [40]: -0.133 | glycan array binding signal (z-score) [41]: -0.344 | glycan array binding signal (z-score) [42]: 0.977 | glycan array binding signal (z-score) [43]: -0.253 | glycan array binding signal (z-score) [44]: -0.05 | glycan array binding signal (z-score) [45]: 0.424 | glycan array binding signal (z-score) [46]: -0.645 | glycan array binding signal (z-score) [47]: -0.507
